# The RNAGym collection of RNA variant scans (doi:10.1093/nar/gkz1192)
# The source gives no read counts; variants with many changes may rest on few reads.
# B1: CPEB3 Ribozyme (parent)
# chain: UAACAGGGGGCCACAGCAGAAGCGUUCACGUCGCAGCCCCUGUCAGAUUCUGGUGAAUCUGCGAAUUCUGCUGUAUAUCUC
# Variants of: B1
# Assay: self-cleavage, relative activity (ratio to wild type); higher = more cleavage; in vitro, sequencing
# Summary of the method: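 Relative activity was defined as the cleaved/total read fraction for a variant divided by the same fraction for the unmutated ribozyme. CPEB3 self-cleaving ribozyme libraries were made by rounds of error-prone PCR, barcoded, and transcribed in vitro with T7 RNA polymerase for 5 hours at 37°C, and cleavage ran through transcription plus a 15 min DNase I step before EDTA. Illumina sequencing of template-switched reverse transcripts gave the reads, and DNA sequencing mapped the barcodes. Averages come from three batches, using variants with at least 5 reads.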
row,Variant,self-cleavage
1,A15G A35G U60C U76C U78C,0.4
2,A15G A64U U78A U80C,0.34
3,A15G A18G U25C U41C C71U U76C U80G,0.05
4,A15G A47G U54C A56U U78A,0.38
5,A15G A35U A56C,0.24
6,A15G A20G G30A U49C U69C,0.75
7,A15G A18G C23G U67A A75G,0.17
8,A15G A35U U51C U60C U69C,0.07
9,A15G A35U U43A U51A,0.55
10,A15G A18U U26A U76A,0.1
11,A15G A35U U41C U49C,0.17
12,A15G A28U A57G U72A,0.11
13,A15C U43G U66C U80C,0.18
14,A15G A18U U31C U41A U78G,0.32
15,A15G A45G G52C U60C,1.14
16,A15G A21G G30A U31C,0.09
17,A15G A21G U48C C62A,0.2
18,A15G A28U G36U U41C A77U,0.24
19,A15G C34G A64G U69C C71A U74C,0.1
20,A15G A21G A28G U48A,0.22
21,A15C C23U A45G,0.46
22,A15G A35G U43C U54A,0.34
23,A15G C27A C32U U58C,0.2
24,A15G A20G C32U U80C,0.11

row,Variant,self-cleavage
1,A15G A20U C32U A35U,0.07
2,A15G A20G G53A A57G,0.42
3,A15G A28G A35G U67C C79A,0.14
4,A15G A21G A35G C59G U60A,0.33
5,A15G A20U U41A A45G U54A U66C U69A,0.35
6,A15G A18U A35C,0.33
7,A15G A28G U48C U60A U72G,0.1
8,A15G A20G G73A,1.09
9,A15G A20G U60A,0.14
10,A15G C17A A21G U48C A64U U66C U80C,0.22
11,A15G A18U C39U G53U,0.21
12,A15G C23U A45G A47U U80C,0.06
13,A15G A18U U26C A35U,0.24
14,A15G A57U A75G,0.19
15,A15G A35U A45G G52A,0.43
16,A15G C34U A75U,0.1
17,A15G A21U A28G,0.35
18,A15G A20G A65G,0.15
19,A15G A20G U31C C44U U72C,0.07
20,A15G C27A G42A A47G U69A,0.22
21,A15C G30A U48G,0.16
22,A15G A20G A45G,0.13
23,A15G A21U U25C A45G U54C U72A,0.25
24,A15G A21G G30A U41A U58C,0.18

row,Variant,self-cleavage
1,A15G A20G C39G U51A A65G C79A,0.03
2,A15G A21G A75U,0.82
3,A15G A45U U58A U76C A77G,0.14
4,A15C U26A U69C U74C,0.15
5,A15G A20U U80A,0.28
6,A15G C38A U74A,0.38
7,A15G A18G U41A U80A,0.43
8,A15C C23U U26C C39G A47U U69G,0.04
9,A15G A20G G24A A28U A57U,0.1
10,A15G A45U U51G U58G U69A,0.15
11,A15G A28G A56G G61C,0.12
12,A15G A18G A35G U48A G61A U67C,0.06
13,A15G A56G U60G,0.38
14,A15G C29U G36C U60C U72C U78C,0.06
15,A15G A28U U60A,0.05
16,A15G C32U A47G U60A U76C,0.13
17,A15C C59A U60C,0.14
18,A15G A35U A57U U69A,0.12
19,A15C A45U A57U U66C,0.2
20,A15G A64U U66C,0.25
21,A15C U26A U43A G63A,0.05
22,A15G C23U U26A A47G U51C A75U,0.12
23,A15C U31C A47G U78C,0.31
24,A15G A18G U26C A47U U72C,0.12

row,Variant,self-cleavage
1,A15G C17A A57G U80C,0.49
2,A15G A56G U78C,0.49
3,A15G A47G A56G C62A U72C,0.2
4,A15G A21G U51A A56U U60C U72C,0.13
5,A15G A20U G53A A56G U69A U72C,0.1
6,A15C U25C A77G,0.33
7,A15G C29A A56U,0.24
8,A15G C17U U51C A57C,0.17
9,A15G A18G U25A A57U,0.06
10,A15G A57G U76C,1.17
11,A15G A21G U26A A45U U60C A64G,0.09
12,A15G A20G G55U,0.46
13,A15G A20G U43C A75G,0.19
14,A15C A64U U67C,0.21
15,A15G A18C U26C A45C,0.15
16,A15G A18C U49A A75U,0.43
17,A15G A21C U26C A56G,0.31
18,A15G A28U A35G U41A U51C A64G,0.05
19,A15G A18U C34A U58C,0.06
20,A15G C34U U66A,0.18
21,A15G A21G U67A,0.38
22,A15G A45G U66C,0.54
23,A15G A20U U25C A28G U67C,0.06
24,A15C G22A A47G,0.07

row,Variant,self-cleavage
1,A15G A47G U49C C68G,0.12
2,A15C U54C A64U C71U,0.41
3,A15G A28G U60C A64G U69A U74A,0.23
4,A15G A35U U41C A64U,0.18
5,A15G A21G C44A,0.18
6,A15G A18C U51A,0.52
7,A15G A28U U78C,0.48
8,A15G A28U U78A,0.63
9,A15G A28G C37U U48C U51C U67C,0
10,A15C G24A U80G,0.27
11,A15G A18U C32U U51G C59A,0
12,A15G A35U C39A G70A U78C,0.03
13,A15C U66C U72C,0.42
14,A15C A45U U67C U72G,0.13
15,A15G A20G A35U,0.59
16,A15G A20C U58C A64U,0.13
17,A15G A35U U54G U67C C68A U76A,0.11
18,A15G A21G U25C C27A U58C U66C,0.09
19,A15G A18G C38A U43C A47U A65U U80C,0.06
20,A15C U26C U41A U54C A56G U74G,0.24
21,A15G A57U U66C,0.19
22,A15C U31G A47G,0.26
23,A15G A18C G22C A45C A47U,0.2
24,A15G A64G U69A,0.13

row,Variant,self-cleavage
1,A15G C37A C39U U60A U69G,0.1
2,A15G A21G U26A,0.31
3,A15G A18U U69G,0.88
4,A15C U31A C59U U74C,0.73
5,A15C C23U U58A A77U,0.1
6,A15G A45U U76A U78C,0.28
7,A15G A21G U26A A64G,0.27
8,A15C U25C G33A U72C U76C U80A,0.21
9,A15C C27U A57G,0.07
10,A15G C17A U48C,0.07
11,A15G A47G A56U G63A,0.27
12,A15G A20G A64G,0.38
13,A15G C23G A28U U41C U43C,0.09
14,A15G A45G G52A U54C U78C,0.99
15,A15G A20G U31C U41A U78C,0.29
16,A15C C23U U26C U31A,0.23
17,A15G A28C C38A U43C A57U A64C,0.08
18,A15G A18G U51A U54A U66C,0.16
19,A15G A28G A56G C71G,0.23
20,A15G A28G A56G,0.32
21,A15G C27A G36A U51C A56G U78C,0.12
22,A15G A28U U41C U43A A64G U72C U76A,0.27
23,A15G A20U A75U,0.06
24,A15G A18G U41A U49C A57U A64G,0.06

row,Variant,self-cleavage
1,A15G A35U U41G A57G A75G,0.12
2,A15G A18U U31C A35U U51A U66C U67C,0.16
3,A15G A18U G52U U58G A75U U78C,0.22
4,A15G C29U U41A A75G,0.45
5,A15C A45U A56G,0.4
6,A15G A45U C50U,0.19
7,A15G A28U A35G,0.37
8,A15G A18G A45U U49G,0.07
9,A15C A64G U78C,0.56
10,A15G A35U G42C A56G,0.05
11,A15G C23U A28G A45G,0.09
12,A15G A35U U54C G63U U72C,0.89
13,A15G A65U U67A U78C,0.14
14,A15C U48C A64U,0.25
15,A15C U31C U80A,0.59
16,A15C U41C U66C,0.27
17,A15C U25C C40U U69C,0.12
18,A15G A45G U76C,0.22
19,A15G A21G C27U A75G,0.47
20,A15G C23G U26C G52C U67C,0.06
21,A15G A18G A57G A64G U67C U78A U80C,0.09
22,A15G A57G U66C U72C,0.18
23,A15G A18U U48C U51A,0.38
